Hit rate of the full screen: of about 48,000 compounds, about 1,200 (2.5%) were called active. Roughly 2% stayed inconclusive and do not appear here.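 How the source made its calls: active means activation of at least 60% and not above a set upper limit (about 1 call in 100 departs from these limits); inconclusive means activation of 40% to 60%, or above that upper limit; inactive means activation under 40%.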 This is one part of the list.
molecular target: Probable G-protein coupled receptor 32 (Homo sapiens) (UniProt O75388); experiment: qHTS for Agonists of Human Resolvin D1 Receptor DRV1; details: CHO-K1 GPR32 beta-arrestin PathHunter luminescence, 90 min; at 76.9 µM; hits give high values; zero percent set by DMSO-only wells; further: 0% is about no effect
Procedure, shortened: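 Luminescent readout of beta-Gal complementation quantifies ligand-induced beta-arrestin association with GPR32 in CHO-K1 cells; 90 min compound incubation at 37 °C, detection 1 h at room temperature.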

UniProt O75388, sequence (O75388 whole entry, looked up): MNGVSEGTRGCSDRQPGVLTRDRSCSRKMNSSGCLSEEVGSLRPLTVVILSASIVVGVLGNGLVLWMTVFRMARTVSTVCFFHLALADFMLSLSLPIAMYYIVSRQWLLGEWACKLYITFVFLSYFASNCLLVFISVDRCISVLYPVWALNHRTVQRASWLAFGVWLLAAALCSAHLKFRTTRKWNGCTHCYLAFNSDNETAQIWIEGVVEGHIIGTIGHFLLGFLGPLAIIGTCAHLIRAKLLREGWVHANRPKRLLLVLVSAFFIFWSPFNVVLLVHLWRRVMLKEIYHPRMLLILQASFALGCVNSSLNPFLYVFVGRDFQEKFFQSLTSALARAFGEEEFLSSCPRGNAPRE

Row | Structure (SMILES) | activation
1 | CN(C)c1oc(/C=C/c2ccc(F)cc2)nc1C#N | inactive: -12.1%
2 | Cc1cccc(-c2c3c(=O)n(C)c(=O)n(C)c3cn2-c2cc(N)c(Cl)cc2Cl)c1 | inactive: -21.4%
3 | Nc1cc(=O)nc(SCC(=O)Nc2cccc(Cl)c2)n1CCc1ccccc1 | inactive: -2.15%
4 | CSc1ccc(-c2nc3ncccn3c2Nc2ccc(C)c(C)c2)cc1 | inactive: -31.6%
5 | CC(=O)c1ccc(NC(=O)Nc2nnc(N3CCCC(C)C3)s2)cc1 (centres undefined) | inactive: -1.31%
6 | CCN(c1ccccc1)c1nnc(NC(=O)Nc2cccc(Cl)c2C)s1 | inactive: 6.27%
7 | CC(C)(C)OC(=O)N1CCC(c2c(C(=O)NCc3cccs3)cnn2-c2ccc(F)cc2F)CC1 | inactive: -28.9%
8 | COc1ccc(Cl)cc1Nc1ncnc2c1c(-c1ccccc1)cn2-c1ccccc1 | inactive: -18.4%
9 | Cc1c2cnn(CC(=O)NCc3ccc(F)cc3)c(=O)c2c(C)n1Cc1ccccc1F | inactive: -3.31%
10 | Cc1nc2c(C(=O)NCCc3ccccc3)cnn2c(C)c1Cc1c(F)cccc1Cl | inactive: -10.2%
11 | COCCN1CCc2nc(SCC(=O)Nc3ccc(Br)cc3)[nH]c(=O)c2C1 | inactive: 2.65%
12 | CCOCCCNC(=O)c1cc2c(-c3ccc(OC)c(OC)c3)nn(C)c2s1 | inactive: 21%
13 | Cc1noc(/C=C/N(C)C)c1S(=O)(=O)N1CCCC(C(=O)Nc2ccc(F)cc2F)C1 (centres undefined) | inactive: -29.1%
14 | COc1ccc(NC(=O)Nc2sc3nc4n(c(=O)c3c2C)CCC(C)CC4)cc1OC (centres undefined) | inactive: 20.8%
15 | Cc1ccc(CNC(=O)CCSCc2ccccc2F)cc1 | inactive: 2.71%
16 | O=C(NCc1cccnc1)c1nn(-c2ccccc2F)nc1CO | inactive: -8.59%
17 | CCc1cccc(NC(=O)CCc2c(C)nc3c(c2C)c(=O)n(C)c(=O)n3C)c1 | inactive: 11.9%
18 | Cc1ccc(N(C(=O)COc2ccccc2C)S(=O)(=O)c2ccc(Cl)cc2)cc1 | inactive: -5.34%
19 | CC(=O)N(CC(=O)N(C)C)c1ccccc1 | inactive: -5.58%
20 | Cc1cc(C)c2oc(C(=O)Nc3sc4c(c3C(=O)NCc3ccco3)CCCC4)cc(=O)c2c1 | inactive: -10.9%
21 | Cc1ccc(NC(=O)c2cccc(N3CCCS3(=O)=O)c2)cc1 | inactive: -20.9%

Row | Structure (SMILES) | activation
22 | CCN(CC)S(=O)(=O)c1cc(-c2nnc(Nc3ccc(OC)c(C(N)=O)c3)c3ccccc23)ccc1C | inactive: -16.3%
23 | Cc1ccc(Nc2c(-c3cc(Br)ccc3F)nc3cc(C)ccn23)cc1 | inactive: -9.26%
24 | COc1ccccc1N1CCN(c2ccc(=O)n(CC(=O)Nc3ccc(F)c(F)c3)n2)CC1 | inactive: 0.851%
25 | Cc1c(NC(=O)c2ccc(Cl)cc2)cc(C(C)C)c(O)c1S(=O)(=O)c1ccc(Cl)cc1 | inactive: -5.69%
26 | CCOCCCNC(=O)c1ccc(NC(=O)N2CCCCc3ccccc32)cc1 | inactive: -6.11%
27 | COc1ccccc1NC(=O)Cn1c(=O)n(-c2ccc(C)cc2)c(=O)c2ccc(C(=O)NCc3ccco3)cc21 | inactive: -9.08%
28 | CCOc1ccc(NC(=O)N2CCC(CN3CCc4ccccc4C3)CC2)cc1 | inactive: -15.7%
29 | O=C(NCc1ccc(Cl)cc1)C1CCCN(C(=O)c2cnn(-c3ccc(F)cc3)c2-n2cccc2)C1 (centres undefined) | inactive: -9.14%
30 | O=C(CCn1c(=O)c2cccn2c2ccc(F)cc21)NCCc1ccccc1 | inactive: -25.2%
31 | Cc1ccc(C)c(Nc2cc(C(=O)NC3CCCCC3)c3ccccc3n2)c1 | inactive: -16.7%
32 | CCC(=O)N1CCc2cc(CNC(=O)C(CC)c3ccccc3)ccc21 (centres undefined) | inactive: -20.7%
33 | CC(C)c1ccc(S(=O)(=O)c2cnc(SCC(=O)Nc3cccc(C(F)(F)F)c3)nc2N)cc1 | active: 76.4%
34 | CCc1cccc(CC)c1NS(=O)(=O)c1ccc2c(c1)CCN2C(=O)C1CC1 | inactive: -8.4%
35 | Cc1ccc(CNC(=O)c2nnc(Cc3cccc(F)c3)o2)cc1 | inactive: -3.6%
36 | CCOC(=O)c1cc(-c2ccc(OC)c(S(=O)(=O)Nc3ccc(OC)cc3OC)c2)on1 | inactive: -14.9%
37 | COC(=O)c1sccc1S(=O)(=O)N1CCN(c2ccccc2OC)CC1 | inactive: -14.7%
38 | O=C(Nc1ccc2nc(SCCOc3ccccc3Cl)sc2c1)c1cccs1 | inactive: -1.58%
39 | COc1ccc(N2CC(C(=O)Nc3ccc(NC(C)=O)cc3)CC2=O)cc1 (centres undefined) | inactive: -15.3%
40 | CCN1C(=O)c2ccccc2S(=O)c2ccc(C(=O)NCc3ccc(F)cc3)cc21 (centres undefined) | inactive: -16.8%
41 | COCCCNC(=O)C(=O)NCC(c1ccc2c(c1)OCO2)N1CCOCC1 (centres undefined) | inactive: -11.7%
42 | Cc1ccc(C)c(S(=O)(=O)c2nnn3c2nc(N2CCOCC2)c2sccc23)c1 | inactive: -9.84%

Row | Structure (SMILES) | activation
43 | COc1ccc(NC(=O)C2=C(C)Nc3nc(CCCO)nn3C2c2ccc(O)cc2)cc1 (centres undefined) | inactive: -1.68%
44 | CC(C)N(Cc1ccccc1)c1ncnc2c1nnn2C | inactive: -14.5%
45 | CCOc1ccc(C(c2c(O)cc(C)n(CCOC)c2=O)N2CCN(c3ccccc3F)CC2)cc1 (centres undefined) | inactive: -16.4%
46 | COc1ccc(NC(=O)C(c2ccc(C)cc2)N(C)C(=O)Cc2cccs2)cc1 (centres undefined) | inactive: -23%
47 | COc1ccccc1CNC(=O)CSc1ncc2c(n1)-c1ccc(Cl)cc1N(Cc1ccccc1)S2(=O)=O | inactive: -5.33%
48 | Cc1c(Cl)cccc1NC(=O)C(C)n1c(=O)cc(-c2ccccc2)c2c(C)nn(C)c21 (centres undefined) | inactive: 17.7%
49 | CCc1ccc(NC(=O)c2sc3nc(C)c(Cl)c(C)c3c2N)cc1 | inactive: 7.84%
50 | O=C(Cn1c(-c2cccs2)cc2cc(Cl)ccc21)N1CCN(c2ccccc2)CC1 | inactive: -5.97%
51 | O=C(Cn1c(=O)c2cc(Cl)ccc2n2nncc12)Nc1ccccc1 | inactive: -4.1%
52 | Cc1ccc(NC(=O)C2CCCN2S(=O)(=O)c2ccc3c(c2)CCCC(=O)N3)cc1C (centres undefined) | inactive: 7.48%
53 | CCOc1ccccc1C(=O)N1CC(=O)Nc2ccc(Cl)cc2C1c1ccccc1 (centres undefined) | inactive: -22.2%
54 | COc1ccc(-c2cccc(NS(=O)(=O)c3cc(C)c(OC)c(C)c3C)c2)nn1 | inactive: 35.6%
55 | C=CCC(CC=C)(CNC(=O)C(=O)Nc1cccc(C(F)(F)F)c1)c1ccccc1 | inactive: -9.67%
56 | O=C(CC(c1cccs1)N1Cc2ccccc2C1=O)Nc1ccc(F)c(Cl)c1 (centres undefined) | inactive: 23.8%
57 | CC(=O)Nc1cc(C(=O)NCc2ccc(C)cc2)ccc1Sc1ccc(C)cc1 | inactive: -13.4%
58 | CC(CNC(=O)Cn1ccc2cc(S(=O)(=O)N3CCCCCC3)ccc21)c1ccccc1 (centres undefined) | inactive: -0.678%
59 | COc1ccc(Cl)cc1NC(=O)CN(C)S(=O)(=O)c1ccc2c(c1)CCCN2C(C)=O | inactive: 18.9%
60 | CCOC(=O)c1ccc(N2CCN(c3cccc(Cl)c3)CC2)c(NC(=O)Nc2ccc(OC)cc2OC)c1 | inactive: -24.8%
61 | CCc1ccc(-c2nc(CN3CCCC(C(=O)N4CCN(c5cc(Cl)ccc5C)CC4)C3)c(C)o2)cc1 (centres undefined) | inactive: -5.86%
62 | COc1ccc(-c2onc(C)c2C)cc1S(=O)(=O)NCC1CCN(Cc2ccccc2F)CC1 | inactive: 0.724%
63 | CCOC(=O)CSc1nc2ccccc2c(=O)n1CCc1ccc(OC)c(OC)c1 | inactive: -0.0625%

Row | Structure (SMILES) | activation
64 | CCC1CN(C(=O)N2CCC(C(=O)NCCN(CC)CC)CC2)c2ccccc2O1 (centres undefined) | inactive: -4.28%
65 | Cc1cccc(-n2c(=O)c3c(c4cc(C)ccc4n3C)n(CC(=O)NCCC3=CCCCC3)c2=O)c1 | inactive: 0.416%
66 | COc1ccc(-c2noc(-c3cccnc3NCc3ccco3)n2)cc1 | inactive: -9.4%
67 | CCCN1C(=O)C(O)(CC(=O)c2ccc(CC)cc2)c2ccccc21 (centres undefined) | inactive: -12.9%
68 | CCc1cccc(C)c1NC(=O)CSc1nc(C)cc(C)c1C(=O)Nc1ccccc1 | inactive: -23.1%
69 | Cc1ccc(Oc2c(C(F)(F)F)oc3cc(OCC(=O)NC4CCCCC4)ccc3c2=O)cc1 | inactive: 1.74%
70 | COc1cccc(-n2cc(C(=O)NCc3ccccc3OC)c3ccccc3c2=O)c1 | inactive: -12.6%
71 | COc1ccc(-c2nc(CN3CCC(C(=O)NCCCOC(C)C)CC3)c(C)o2)cc1OC | inactive: -15.6%
72 | Cc1ccccc1Cn1c(=O)n(CCc2ccccc2)c(=O)c2c(C)c(C)sc21 | inactive: 5.77%
73 | COc1cccc(OCCSc2nc3ccccc3n2CC(=O)N2CCCCC2)c1 | inactive: 0.478%
74 | COC(=O)c1cc(S(=O)(=O)NCC2CCN(Cc3cccc(F)c3)CC2)c[nH]1 | inactive: -22.2%
75 | CCc1cc2c(cc3c(=O)n(CC(=O)NCCc4ccc(OC)c(OC)c4)ncn32)s1 | inactive: 1.57%
76 | COc1ccc(OC)c(C2N=C(N)Nc3nc4ccccc4n32)c1 (centres undefined) | inactive: 35.2%
77 | COc1cc(OC)c(C2Nc3ccccc3-c3nnc(SCc4ccccc4)nc3O2)cc1OC (centres undefined) | active: 64.1%
78 | COC(=O)CSc1nc(-c2ccc(F)cc2)cc(C(F)(F)F)n1 | inactive: -5.46%
79 | O=C(CCn1ccc2cc(S(=O)(=O)N3CCCC3)ccc21)NCc1cccc(F)c1 | inactive: -0.212%
80 | Cc1cccc(C)c1-n1ncc(C(=O)NCCN2CCOCC2)c1C1CCN(C(=O)OC(C)(C)C)CC1 | inactive: -6.74%
81 | COc1ccc(NC(=O)Cn2c(=O)n(Cc3nc(C)no3)c(=O)c3cc4c(cc32)OCO4)cc1OC | inactive: -2.6%
82 | Cc1nc(-c2ccc(Cl)cc2)sc1CCNC(=O)c1ccc(C(F)(F)F)cc1 | inactive: -3.57%
83 | Cc1ccc(C)c(NC(=O)CCn2nc(C)c3c(C)n(-c4ccccc4)nc3c2=O)c1 | inactive: 0.704%
84 | CCC(C(=O)Nc1ccccc1C(=O)OC)n1nc(C)c2c(C)n(-c3ccc(C)cc3)nc2c1=O (centres undefined) | inactive: -23%

Reference: PubChem BioAssay AID1346428 (National Center for Advancing Translational Sciences (NCATS), 2018)
